{
  "source": "patent US20180037644A1",
  "about": "(Pfizer, published 2018)",
  "binders": {"B1": {"name": "human ST2-Fc-His (R&D) (Fc fusion)", "chain": "KFSKQSWGLENEALIVRCPRQGKPSYTVDWYYSQTNKSIPTQERNRVFASGQLLKFLPAEVADSGIYTCIVRSPTFNRTGYANVTIYKKQSDCNVPDYLMYSTVSGSEKNSKIYCPTIDLYNWTAPLEWFKNCQALQGSRYRAHKSFLVIDNVMTEDAGDYTCKFIHNENGANYSVTATRSFTVKDEQGFSLFPVIGAPAQNEIKEVEIGKNANLTCSACFGKGTQFLAAVLWQLNGTKITDFGEPRIQQEEGQNQSFSNGLACLDMVLRIADVKEEDLLLQYDCLALNLHGLRRHTVRLSRKNPSKECFIEGRM[gap - human IgG1 Fc and a few adjoining residues]"}},
  "assay_in_all_cases": "cell-based or functional assay",
  "key": {"[1]": {"molecular_target": "T1, cynomolgus monkey IL-33 (cys mut) (cynomolgus monkey)", "T1 chain": "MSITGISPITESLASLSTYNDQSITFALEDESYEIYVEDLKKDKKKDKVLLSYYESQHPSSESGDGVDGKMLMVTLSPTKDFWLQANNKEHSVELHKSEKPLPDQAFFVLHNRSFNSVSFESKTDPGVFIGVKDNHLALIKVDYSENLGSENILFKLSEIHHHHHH"}, "[2]": {"molecular_target": "T2, human IL-33 (mm2) (human, UniProt O95760 112-270)", "T2 chain": "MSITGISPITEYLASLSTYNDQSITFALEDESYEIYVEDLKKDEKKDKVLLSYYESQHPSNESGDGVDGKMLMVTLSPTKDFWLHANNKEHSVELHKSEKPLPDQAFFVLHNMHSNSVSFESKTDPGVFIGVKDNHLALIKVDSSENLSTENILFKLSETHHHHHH"}, "[3]": {"molecular_target": "T2, human IL-33 (mm2)"}, "[4]": {"molecular_target": "T3, human IL-33 WT (R&D) (human, UniProt O95760 112-270)", "T3 sequence": "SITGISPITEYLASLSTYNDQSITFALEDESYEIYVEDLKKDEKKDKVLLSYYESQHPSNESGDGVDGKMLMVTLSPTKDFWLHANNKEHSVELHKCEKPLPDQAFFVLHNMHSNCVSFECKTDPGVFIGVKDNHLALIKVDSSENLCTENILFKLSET"}, "[5]": {"molecular_target": "T1, cynomolgus monkey IL-33 (cys mut)"}},
  "note": "Read-outs that look alike come from different tables or passages of the source.",
  "data": [
    {"binder": "B1", "values": [
      {"measurement": "IC50, HEK293 ST2 NFkB", "setting": "[1]", "result": 45, "unit": "pM"},
      {"measurement": "IC50, HEK293 ST2 NFkB", "setting": "[2]", "result": 43, "unit": "pM"},
      {"measurement": "IC50, HEK293 ST2 NFkB", "setting": "[3]", "result": 56, "unit": "pM"},
      {"measurement": "IC50, HEK293 ST2 NFkB", "setting": "[4]", "result": 1890, "unit": "pM"},
      {"measurement": "IC50, HEK293 ST2 NFkB", "setting": "[5]", "result": 5, "unit": "pM"}
    ]}
  ]
}
